Data: the supplement of paper PMC12645437, “Orthogonal IMiD-Degron Pairs Induce Selective Protein Degradation in Cells” (ACS Chemical Biology, 2025)
The other results are listed elsewhere or left out.

B1: Q9UKT9 (peptide)
chain: FECDVCGAQFTQKGNLLRHIKL
B2: Q9UKT9 (peptide)
chain: FICEQCGAFFTQKGNLLRHIKL
B3: Q9UKT9 (peptide)
chain: FICPQCGAFFTQKGNLLRHIKL
B4: Q9UKT9 (peptide)
chain: FFCPQCGASFTQKGNLLRHIKL
B5: Q9UKT9 (peptide)
chain: FSCPICGRNFTQKGNLLRHIKL
B6: Q9UKT9 (peptide)
chain: FQCNQCGRMFTQKGNLLRHIKL
B7: Q9UKT9 (peptide)
chain: FWCNQCGHQFTQKGNLLRHIKL
B8: Q9UKT9 (peptide)
chain: FTCEICGRGFTQKGNLLRHIKL
B9: Q9UKT9 (peptide)
chain: FFCEICGRRFTQKGNLLRHIKL
B10: Q9UKT9 (peptide)
chain: LGCNQCGFGCTQKGNLLRHIKL
B11: Q9UKT9 (peptide)
chain: FTCNVCGASFTQKGNLLRHIKL
B12: Q9UKT9 (peptide)
chain: FNCEVCGAFFTQKGNLLRHIKL
B13: Q9UKT9 (peptide)
chain: FLCNICGALFTQKGNLLRHIKL
B14: Q9UKT9 (peptide)
chain: LHCNQCGFSCTQKGNLLRHIKL
B15: Q9UKT9 (peptide)
chain: FMCNQCGRQFTQKGNLLRHIKL
B16: Q9UKT9 (peptide)
chain: FTCPVCGAQFTQKGNLLRHIKL
B17: Q9UKT9 (peptide)
chain: FRCEICGHIFTQKGNLLRHIKL
B18: Q9UKT9 (peptide)
chain: FSCNQCGHPFTQKGNLLRHIKL
B19: Q9UKT9 (peptide)
chain: FVCEICGAEFTQKGNLLRHIKL
B20: Q9UKT9 (peptide)
chain: FECPICGHIFTQKGNLLRHIKL
B21: Q9UKT9 (peptide)
chain: FWCNQCGHLFTQKGNLLRHIKL
B22: Q9UKT9 (peptide)
chain: FHCEICGANFTQKGNLLRHIKL
B23: Q9UKT9 (peptide)
chain: FVCNVCGAVFTQKGNLLRHIKL
B24: Q9UKT9 (peptide)
chain: FMCPICGHQFTQKGNLLRHIKL
B25: Q9UKT9 (peptide)
chain: FMCEVCGAFFTQKGNLLRHIKL
B26: Q9UKT9 (peptide)
chain: FWCPICGANFTQKGNLLRHIKL
B27: Q9UKT9 (peptide)
chain: FFCNQCGHTFTQKGNLLRHIKL
B28: Q9UKT9 (peptide)
chain: FFCNICGAEFTQKGNLLRHIKL
B29: Q9UKT9 (peptide)
chain: FKCPICGAQFTQKGNLLRHIKL
B30: Q9UKT9 (peptide)
chain: FGCPICGHLFTQKGNLLRHIKL
B31: Q9UKT9 (peptide)
chain: FCCPQCGALFTQKGNLLRHIKL
B32: Q9UKT9 (peptide)
chain: FICEICGAVFTQKGNLLRHIKL
B33: Q9UKT9 (peptide)
chain: FMCPQCGAKFTQKGNLLRHIKL
B34: Q9UKT9 (peptide)
chain: FGCEICGAYFTQKGNLLRHIKL
B35: Q9UKT9 (peptide)
chain: FSCNQCGRWFTQKGNLLRHIKL
B36: Q9UKT9 (peptide)
chain: FNCEICGARFTQKGNLLRHIKL
B37: Q9UKT9 (peptide)
chain: FKCDQCGACFTQKGNLLRHIKL
B38: Q9UKT9 (peptide)
chain: LWCPICGFLCTQKGNLLRHIKL
B39: Q9UKT9 (peptide)
chain: FICPQCGAKFTQKGNLLRHIKL
B40: Q9UKT9 (peptide)
chain: FSCEICGAMFTQKGNLLRHIKL
B41: Q9UKT9 (peptide)
chain: FWCEICGHLFTQKGNLLRHIKL
B42: Q9UKT9 (peptide)
chain: LKCPICGFNCTQKGNLLRHIKL
B43: Q9UKT9 (peptide)
chain: FNCPVCGAPFTQKGNLLRHIKL
B44: Q9UKT9 (peptide)
chain: FVCPQCGAGFTQKGNLLRHIKL
B45: Q9UKT9 (peptide)
chain: FACSVCGHVFTQKGNLLRHIKL
B46: Q9UKT9 (peptide)
chain: FGCEQCGAFFTQKGNLLRHIKL
B47: Q9UKT9 (peptide)
chain: FYCNICGAKFTQKGNLLRHIKL
B48: Q9UKT9 (peptide)
chain: FHCNQCGHTFTQKGNLLRHIKL
B49: Q9UKT9 (peptide)
chain: FMCEQCGAPFTQKGNLLRHIKL
B50: Q9UKT9 (peptide)
chain: FWCPICGRKFTQKGNLLRHIKL

Target: no compound (DMSO)
Assay: log2 fold change of degron read counts, EGFP-low vs EGFP+ sorted cells; higher = lower degron-EGFP level without compound (poor expression or instability)
Settings: compound: DMSO control; 18 h
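Note: jurkat cells carrying a lentiviral library of mutant zinc finger degrons fused to EGFP plus mCherry, mCherry+ cells FACS sorted, degron abundance counted by next-generation sequencing.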

**Q.** How did the “log2 fold change of degron read counts” value turn out when B1 was run?
**A.** Its value is -3.48.

**Q.** How did the “log2 fold change of degron read counts” value turn out when B2 was run?
**A.** The value was -1.19.

**Q.** Which “log2 fold change of degron read counts” value does the source give for B3 here?
**A.** Its value is 0.219.

**Q.** With B4 as the sequence, how does the “log2 fold change of degron read counts” value read?
**A.** Its value is 0.0557.

**Q.** For B5, which “log2 fold change of degron read counts” value is on record?
**A.** Its value is -0.528.

**Q.** For B6, which “log2 fold change of degron read counts” value is on record?
**A.** Its value is -0.508.

**Q.** With B7 as the sequence, how does the “log2 fold change of degron read counts” value read?
**A.** Its value is 0.51.

**Q.** Which “log2 fold change of degron read counts” value does the source give for B8 here?
**A.** The value was -1.99.

**Q.** How did the “log2 fold change of degron read counts” value turn out when B9 was run?
**A.** The value was -1.27.

**Q.** B10 was tested. Which “log2 fold change of degron read counts” value did it give?
**A.** Its value is 0.994.

**Q.** How did the “log2 fold change of degron read counts” value turn out when B11 was run?
**A.** The value was -0.367.

**Q.** B12 was tested. Which “log2 fold change of degron read counts” value did it give?
**A.** Its value is -0.867.

**Q.** B13 was tested. Which “log2 fold change of degron read counts” value did it give?
**A.** Its value is 0.478.

**Q.** B14 was tested. Which “log2 fold change of degron read counts” value did it give?
**A.** Its value is 0.601.

**Q.** For B15, which “log2 fold change of degron read counts” value is on record?
**A.** Its value is -0.397.

**Q.** For B16, which “log2 fold change of degron read counts” value is on record?
**A.** Its value is -0.398.

**Q.** For B17, which “log2 fold change of degron read counts” value is on record?
**A.** Its value is -1.01.

**Q.** Which “log2 fold change of degron read counts” value does the source give for B18 here?
**A.** The value was 0.172.

**Q.** With B19 as the sequence, how does the “log2 fold change of degron read counts” value read?
**A.** The value was -2.34.

**Q.** How did the “log2 fold change of degron read counts” value turn out when B20 was run?
**A.** Its value is -0.774.

**Q.** Which “log2 fold change of degron read counts” value does the source give for B21 here?
**A.** The value was 1.91.

**Q.** Which “log2 fold change of degron read counts” value does the source give for B22 here?
**A.** Its value is -1.72.

**Q.** B23 was tested. Which “log2 fold change of degron read counts” value did it give?
**A.** Its value is -0.964.

**Q.** B24 was tested. Which “log2 fold change of degron read counts” value did it give?
**A.** Its value is -0.544.

**Q.** With B25 as the sequence, how does the “log2 fold change of degron read counts” value read?
**A.** The value was -0.928.

**Q.** For B26, which “log2 fold change of degron read counts” value is on record?
**A.** Its value is 0.38.

**Q.** For B27, which “log2 fold change of degron read counts” value is on record?
**A.** The value was 0.299.

**Q.** Which “log2 fold change of degron read counts” value does the source give for B28 here?
**A.** The value was -0.174.

**Q.** How did the “log2 fold change of degron read counts” value turn out when B29 was run?
**A.** Its value is 0.0242.

**Q.** With B30 as the sequence, how does the “log2 fold change of degron read counts” value read?
**A.** The value was 0.112.

**Q.** How did the “log2 fold change of degron read counts” value turn out when B31 was run?
**A.** Its value is -0.275.

**Q.** B32 was tested. Which “log2 fold change of degron read counts” value did it give?
**A.** Its value is -1.19.

**Q.** How did the “log2 fold change of degron read counts” value turn out when B33 was run?
**A.** Its value is -0.667.

**Q.** B34 was tested. Which “log2 fold change of degron read counts” value did it give?
**A.** The value was -0.188.

**Q.** B35 was tested. Which “log2 fold change of degron read counts” value did it give?
**A.** The value was 0.37.

**Q.** With B36 as the sequence, how does the “log2 fold change of degron read counts” value read?
**A.** Its value is -0.979.

**Q.** How did the “log2 fold change of degron read counts” value turn out when B37 was run?
**A.** The value was -1.63.

**Q.** For B38, which “log2 fold change of degron read counts” value is on record?
**A.** The value was 3.61.

**Q.** B39 was tested. Which “log2 fold change of degron read counts” value did it give?
**A.** The value was -0.782.

**Q.** For B40, which “log2 fold change of degron read counts” value is on record?
**A.** Its value is -1.24.

**Q.** How did the “log2 fold change of degron read counts” value turn out when B41 was run?
**A.** Its value is 1.17.

**Q.** With B42 as the sequence, how does the “log2 fold change of degron read counts” value read?
**A.** Its value is 0.751.

**Q.** B43 was tested. Which “log2 fold change of degron read counts” value did it give?
**A.** Its value is 0.0878.

**Q.** For B44, which “log2 fold change of degron read counts” value is on record?
**A.** The value was -1.33.

**Q.** B45 was tested. Which “log2 fold change of degron read counts” value did it give?
**A.** The value was -0.481.

**Q.** B46 was tested. Which “log2 fold change of degron read counts” value did it give?
**A.** The value was -0.127.

**Q.** Which “log2 fold change of degron read counts” value does the source give for B47 here?
**A.** The value was -1.47.

**Q.** For B48, which “log2 fold change of degron read counts” value is on record?
**A.** Its value is 0.143.

**Q.** Which “log2 fold change of degron read counts” value does the source give for B49 here?
**A.** Its value is -0.741.

**Q.** With B50 as the sequence, how does the “log2 fold change of degron read counts” value read?
**A.** The value was -1.99.
